The RNAGym collection of RNA variant scans (doi:10.1073/pnas.2313332121)
Variants at the floor of the assay are shown more often than the library holds them.

B1: TPR 5TU (parent)
chain: GGAUCUUCUCGAUCUAACAAAAAAGACAAAUCUGCCACAAAGCUUGAGAGCAUCUUCGGAUGCAGAGGCGGCAGCCUUCGGUGGCGCGAUAGCGCCAACGUUCUCAACUAUGACACGCAAAACGCGUGCUCCGUUGAAUGGAGUUUAUCAUG

Variants of: B1
Assay: polymerase ribozyme fitness, log enrichment relative to wild type (log ratio); higher = more active; in vitro selection for triplet polymerase activity
Procedure, shortened: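 For each subunit of a heterodimeric triplet polymerase ribozyme, a mutant library was built by PCR and transcribed, then taken through a single in vitro selection round in triplicate. Selection involved annealing to a biotinylated primer, the partner subunit and triplets, incubation frozen at −7 °C, gel excision of extended constructs, capture on streptavidin beads and RT-PCR. Genotypes were retained after Illumina sequencing of inputs and outputs only with ≥10 input reads and ≥1 read in each output. Fitness is defined as the logarithm of a genotype's enrichment relative to wild-type enrichment, using inverse-variance-weighted averages across replicates, with the logarithm taken to base 2.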

Polymerase ribozyme fitness (log ratio), -4.05:
GGAUCUUCUCGAUCUAACAAAAAAGAGAAAUUUGCUACAAAGCUUGAGAGCAUCUUCGGAUGCAGAGGCGGCAGCCUUCGGUGGCGCAAUAGCGCCAAUGUUCUCAACUAUGACACGCAAAACGCGUGCUCCGUUGAAUGUAGUUUAUCAUC [C27G C32U C36U G88A C99U G141U G152C]

Polymerase ribozyme fitness (log ratio), -3.92:
GGAUCUUCUCGAUCUAACAAAAAAGAGAAAUCUGCCACAAAGCUUGAGAGCAUCUUCGGAUGCAGAGGCGGCAGCCUUCGGUGGCGCGAUAGCGCCAACGUUCUCUACUAUGACACGCAAAACGCGUGCUCCGUUGAAUGGAGUUUAUCAUG [C27G A106U]

Polymerase ribozyme fitness (log ratio), ≤ -4.2:
GGAUCUUCUCGAUCUAACAAAAAAGAGAAAUCUGCCACAAAGCUUGAGAGCCUCUUCGGAUGCAGAGGCGGCAGCCUUCGGAGGCGCGAUAGCGCCAACGUUCUCAACUAUGACACGCAAAACGCGUGCUCCGUUGAAUGGAGUUUAUCAUG [C27G A52C U82A]
GGAUCUUCUCGAUCUAACAAAAAAGAGAAAUCUGCCACAAAGCUUGAGAGCGUCUUCGGAUGCAGAGGCGGCAGCCUUCGGUGGCGCGAUAACGCCAACGUUCUCAACUAUGACACGCAAAACGCGUGCUCCGUUGAAUGGAGUUUAUCAUG [C27G A52G G92A]
GGAUCUUCUCGAUCUAACAAAAAAGAGAAAUCUGCCACAAAGCUUGAGAGCAUCUUCGGAUGCAGCGGCGGCAGCCUUCGGUGGCGCGAUAGCGCAAAGGUUCUCAACUAUGACACGCACAACGCGUGCUCCGUUGAAUGGAGUUUAUCAUG [C27G A66C C96A C99G A120C]
GGAUCUUCUCGAUCUAACAAAAAAGAGAAAUCUGCCACAAAGCUUGAGAGCAUCUUCGGAUGCAGGGGCGGCAGCCUUCGGUGGCGCGAUAACGCCAACGUUCUCACCUAUGACACGCAAAACGCGUGCUCCGUUGAAUGGAGUUUAUCAUG [C27G A66G G92A A107C]
GGAUCUUCUCGAUCUAACAAAAAAGAGAAAUCUGCCACAAAGCUUGAGAGCAUCUUCGGAUGCAGAGGCGGCGGCCUUCGGUGGUGCGAUAGCGCCAACGGUCUCAACUAUGACACGCAAAACGCGUGCUCCGUUGAAUGGAGUUUAUCAUG [C27G A73G C85U U101G]
GGAUCUUCUCGAUCUAACAAAAAAGAGAAAUCUGCCACAAAGCUUGAGAGCAUCUUCGGAUGCAGAGGCGGCAGCCUUCGGUGGCGCGAUGGCGCCAACGUUCUCAACUAUGACACGCAAAACGCGUGCUCCGUUGAAUGGAGUUUAUCAUG [C27G A91G]
GGAUCUUCUCGAUCUAACAAAAAAGAGAAAUCUGCCACAAAGCUUGAGAGCAUCUUCGGAUGCAGAGGCGGCAGCCUUCGGUGGCGCGAUAGCGCCAACGUUCUCAACUAUGACACGCAAAACGCGUGCUCCGUUGAAUGGAGUUUAUCCUG [C27G A150C]
GGAUCUUCUCGAUCUAACAAAAAAGAGAAAUGUGCCUCAAAGCUUGAGAGCAUCUUCGGAUGCAGAGGCGGAAGCCUUCAGUAGCUCGAUAGCGCCAACGUUCUUAACUAUGACACCCAAAACGCGUGCUCCGUUGAAUGGAGUUUAUCAUG [C27G C32G A37U C72A G80A G83A G86U C105U G117C]
GGAUCUUCUCGAUCUAACAAAAAAGAGAAAUCUGGCACAAAGCUUGAGCGCAUCUUCGGAUGCAGAGGCCGCAGCCUUAGGUGGCGCGAUAGCGGCAACGUUCUCAACUAUGACACGCAAAACGCGUGCUCCGUUGAAUGGAGUUUAUCAUG [C27G C35G A49C G70C C79A C95G]
GGAUCUUCUCGAUCUAACAAAAAAGAGAAAUCUGCAACAAAGCUUGAGUGCAUCUUCGGAUGCAGAGGCGGCAGCCUUCGGUUGCGCGAUAGCGCCAACGUUCUCAACUACGACACGCAAAACGCGUGCUCCGUUGAAUGGAGUUUAUCAUG [C27G C36A A49U G83U U111C]
GGAUCUUCUCGAUCUAACAAAAAAGAGAAAUCUGCGACAAAGCUUGAGAGCAUCUUCGGAUGCAGAGGCGGCAACCCUCGGUGGCGCGAUAGCGCAAACGUUCUCAACUAUGACACGCGAAACGCGGGCUCCGUUGAAUGGAGUUUAUCAUG [C27G C36G G74A U77C C96A A119G U127G]
GGAUCUUCUCGAUCUAACAAAAAAGAGAAAUCUGCUACAAAGCUUGAGAUCAUCUUCGGAUGCAGAGGCGGCUGCCUUCGGAGGCGCGAUAGCGUCAACGUUCUCAACUAUGACACGCAAAACGCGUGCUCCGUUGAAUGGAGUUUAUCAUG [C27G C36U G50U A73U U82A C95U]
GGAUCUUCUCGAUCUAACAAAAAAGAGAAAUCUGCCAUAAAGCUUGAGCGCAUCUUCGGAUGCACAGGCGGCAGCCUUCGGUGGCGGGAUAGCGCCAACGUUCUCAACUAUGAAACGCGAAACGCGUGCUCCGUUGAAUGAAGUUUAUCAUG [C27G C38U A49C G65C C87G C114A A119G G141A]
GGAUCUUCUCGAUCUAACAAAAAAGAGAAAUCUGCCACAAAGGUUGAGAGCAUCUUCGGAUGCAGAGGCGGCAGCCUUUGGUGGCGAGAUAGCGCCAACGUUCUCAACUAUGACACGCAAAACGCGUGCUCCGUUGAAUGGAGUUUAUCAUG [C27G C43G C79U C87A]
GGAUCUUCUCGAUCUAACAAAAAAGAGAAAUCUGCCACAAAGUUUGAGAGCAUCUUCGGAUGCAGAGGCGGCAGGCUGCGGUGGCGCGAUAGCGCCAACGUUCUCAACUAUGACACGCAAAACGCGUGGUCCGUUGAAUGGAAUUUAUCAUG [C27G C43U C75G U78G C129G G143A]
GGAUCUUCUCGAUCUAACAAAAAAGAGAAAUCUGCCACAAAGCUUGAGAGCAUUUUCGGAUGCAGAGGCGGCAGCGUUCGGUGGCGCGAUAGCGCCAACGUUCUCAACUAUGACACGCAAAACGCGUGCUCCGUUGAAUGGAGGUUAUCAUG [C27G C54U C76G U144G]
GGAUCUUCUCGAUCUAACAAAAAAGAGAAAUCUGCCACAAAGCUUGAGAGCAUCUUUCGAUGCAGAGGCGGCAGCCUUCGGUCGCGCGAUAGCGCCGACGUUCUCAACUAUGACACGCAAAACGCGUGCUCCGUUGAAUGGAGUUUAUCAUG [C27G C57U G58C G83C A97G]
